Out of some 310,000 compounds screened, about 2,200 (0.71%) showed an effect of 50% or more. The effect is printed as a negative number. The list shows a part of the results. Where a SMILES comes first, the peptide text is derived from it. [ ]: non-standard residue; d: D form. The star is where a group is joined. ξ: configuration not given here. ξF = NC(Cc1ccccc1)C(=O)O; Cbz = O=C(OCc1ccccc1)*
These molecules were tested against human ether-à-go-go-related gene (hERG) potassium channel (human, UniProt Q12809) (assay: primary screen, population patch clamp on CHO cells stably expressing hERG).
Chain of human ether-à-go-go-related gene (hERG) potassium channel (Q12809 whole entry, looked up): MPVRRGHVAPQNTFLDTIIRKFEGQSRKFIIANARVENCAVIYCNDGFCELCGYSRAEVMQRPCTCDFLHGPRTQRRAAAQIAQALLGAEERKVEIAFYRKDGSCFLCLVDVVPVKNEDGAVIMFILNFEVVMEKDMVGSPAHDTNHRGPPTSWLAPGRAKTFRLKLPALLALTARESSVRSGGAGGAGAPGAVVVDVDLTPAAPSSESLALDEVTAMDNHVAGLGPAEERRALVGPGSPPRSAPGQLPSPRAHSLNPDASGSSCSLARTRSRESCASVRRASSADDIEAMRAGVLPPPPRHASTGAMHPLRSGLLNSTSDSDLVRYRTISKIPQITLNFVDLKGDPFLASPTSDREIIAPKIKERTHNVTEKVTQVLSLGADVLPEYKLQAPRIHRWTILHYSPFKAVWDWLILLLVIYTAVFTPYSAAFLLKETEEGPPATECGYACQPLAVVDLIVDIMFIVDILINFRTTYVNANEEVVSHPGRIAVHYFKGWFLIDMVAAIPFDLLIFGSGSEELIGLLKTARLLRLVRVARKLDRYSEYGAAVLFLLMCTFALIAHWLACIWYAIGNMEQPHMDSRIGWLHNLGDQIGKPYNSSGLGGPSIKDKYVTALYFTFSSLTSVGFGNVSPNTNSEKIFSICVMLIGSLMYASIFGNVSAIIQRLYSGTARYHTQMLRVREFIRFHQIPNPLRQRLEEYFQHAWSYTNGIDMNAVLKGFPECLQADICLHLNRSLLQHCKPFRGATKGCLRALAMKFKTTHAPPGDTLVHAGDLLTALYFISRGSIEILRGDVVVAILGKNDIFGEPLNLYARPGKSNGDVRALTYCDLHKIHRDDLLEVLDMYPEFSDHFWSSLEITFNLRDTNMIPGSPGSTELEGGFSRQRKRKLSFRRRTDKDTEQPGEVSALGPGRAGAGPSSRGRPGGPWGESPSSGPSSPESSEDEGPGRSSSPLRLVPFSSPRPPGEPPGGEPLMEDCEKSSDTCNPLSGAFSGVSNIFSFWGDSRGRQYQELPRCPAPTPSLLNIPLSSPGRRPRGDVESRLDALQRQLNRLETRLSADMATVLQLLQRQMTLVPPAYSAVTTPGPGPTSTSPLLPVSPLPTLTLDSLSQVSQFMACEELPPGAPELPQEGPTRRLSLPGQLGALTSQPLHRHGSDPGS

Row | SMILES | hERG current change (%, negative = inhibition) at 1uM [%]
1 | O=C(O)c1ccc(NC2=C(N3CCOCC3)C(=O)c3ccccc3C2=O)cc1 | 11.2
2 | Cc1cc(-c2ccccc2)nnc1NCCN1CCOCC1.Cl | -0.953
3 | O=C(Cc1ccccc1)Nc1ccc(N2CCCCC2)cc1 | 2.59
4 | Cc1cc(=O)[nH]c(SCC(=O)Nc2ccc3c(c2)OCCO3)n1 | 9.85
5 | CCOC(=O)C1CCN(C(=O)c2cc(COc3ccc(F)cc3F)on2)CC1 | 3.13
6 | COC(=O)C1=C(C)N(Cc2ccc(C)cc2)C(=O)C1 | 6.87
7 | CCc1ccc(CN(C)C(=O)C2CCC(=O)N(Cc3cccc(OC)c3)C2)nc1 (stereo not drawn) | 4.11
8 | O=S(=O)(CCSc1ccc(C(F)(F)F)cn1)c1ccc(Cl)cc1 | 11.7
9 | Cc1cc(O)cc(O[C@H]2OC(CO)[C@H](O)[C@@H](O)[C@H]2O)c1 (stereo partly drawn) | 10.4
10 | Cc1ccc(NC(=O)/C=C/c2ccc([N+](=O)[O-])s2)cc1 | 13.2
11 | O=c1c2ccccc2nc2n1CCc1c-2[nH]c2ccccc12 | 12.8
12 | CC(=O)SCC(Cc1ccccc1)C(=O)NCC(=O)OCc1ccccc1 (stereo not drawn) | 10.6
13 | C/C(=C\C(=S)Nc1ccccc1)Nc1cccc2ccccc12 | 15.3
14 | Cc1ccc(C(=O)NC(=S)NCC2CCCO2)cc1Br (stereo not drawn) | 10.5
15 | CC1CN(C(=O)c2cccc(C(=O)N3CC(C)OC(C)C3)c2)CC(C)O1 (stereo not drawn) | 17.3
16 | CCCNC(=O)N[C@@H](Cc1ccccc1)C(=O)OC | 8.61
17 | CN(C)C(=S)Nc1cccc(-c2n[nH]c(=S)o2)c1 | 15.3
18 | CCS(=O)(=O)Nc1ccc(C2=NN(C(=O)c3ccccc3)C(c3cccs3)C2)cc1 (stereo not drawn) | 11.4
19 | Cc1ccsc1-c1ccnc(-n2cccc2)n1 | 13.1
20 | Cc1cccc(NC(=O)c2cc([N+](=O)[O-])ccc2NC2CCCCC2)c1 | 11.6
21 | CC(C)[C@H](NC(=O)OCc1ccccc1)C(=O)NC(C=O)Cc1ccccc1 (stereo partly drawn) (Cbz-Val-[ξF]-aldehyde) | 12
22 | Cc1ccc(CCNC(=O)C2CCN(S(=O)(=O)c3cccc4nsnc34)CC2)cc1 | 12.8

Row | SMILES | hERG current change (%, negative = inhibition) at 1uM [%]
23 | Cc1cc(Cl)ccc1OC(C)C(=O)NN1C(=O)c2ccccc2C1=O (stereo not drawn) | 16.5
24 | COc1ccc(CNC(=O)CN(C(=O)c2csnn2)c2cccc(C(C)=O)c2)cc1 | 11.9
25 | Cc1c(C#N)c(NC(=O)C(C)C)n(Cc2ccccc2)c1C | 9.94
26 | CCN(C(=O)Cn1c([N+](=O)[O-])cnc1C)c1ccccc1 | 14.2
27 | CCOC(=O)Cc1nc2ccccc2n(CC#N)c1=O | 11.1
28 | O=C(NCCCn1ccnc1)c1ccc(S(=O)(=O)Nc2ccccc2)cc1 | 5.95
29 | O=C(N/C(=C/c1ccc([N+](=O)[O-])cc1)C(=O)N1CCOCC1)c1ccco1 | -34.6
30 | Cc1cc(C)nc(NC(=O)C(C)N2C(=O)c3ccccc3C2=O)n1 (stereo not drawn) | -18.7
31 | CC(CN(C)C)CN1c2ccccc2CCc2ccccc21.O=C(O)/C=C\C(=O)O (stereo not drawn) | -12.5
32 | CS(=O)(=O)N(Cc1ccccc1)c1ccc(C(=O)Nc2ccccc2Sc2ccccc2)cc1 | -1.7
33 | CCOc1ccc(NC(=O)CN2C(=O)C3CC=CCC3C2=O)cc1 (stereo not drawn) | 8.69
34 | COc1cccc(-n2cc(C(=O)O)c3ccccc3c2=O)c1 | 8.59
35 | CCc1ccccc1NC(=O)CSc1nnc(Cn2cnc3ccccc32)o1 | 11.8
36 | O=C(NC1CC2CCC1C2)C1CCN(S(=O)(=O)c2ccc(-c3nn[nH]n3)cc2)CC1 (stereo not drawn) | 16.3
37 | COc1ccc(C2=NN(C(=O)CSc3nc4ncc(Cl)cc4[nH]3)C(c3ccco3)C2)cc1 (stereo not drawn) | 8.87
38 | Cc1cc(NC(=O)CSc2nnc(Cc3cccn3C)n2CCc2ccccc2)no1 | 3.14
39 | S=C1NCN(C2CCCCC2)CN1Cc1ccccc1 | 7.51
40 | CC(=O)N1c2ccc(S(=O)(=O)N3CCCC(C(=O)NCc4ccc(Cl)cc4)C3)cc2CC1C (stereo not drawn) | 15.5
41 | COc1ccc(NC(=O)CCc2nnc3ccc(N4CCC(C)CC4)nn23)cc1OC | 13.7
42 | Cc1ccc(OCc2cc(C(=O)N(C)CCc3ccccc3)no2)cc1C | 7.65
43 | Cc1cc(O)c(C(C)C)cc1C1(c2cc(C(C)C)c(O)cc2C)OC(=O)c2ccccc21 | 15
44 | O=C(Nc1ccccc1)N1CCN2C(=O)c3ccccc3C12c1ccccc1 (stereo not drawn) | 15.2

Row | SMILES | hERG current change (%, negative = inhibition) at 1uM [%]
45 | Cc1cc(C)n2nc(C(=O)N/N=C/c3ccc(O)cc3)nc2n1 | 11.1
46 | Cc1nn(C2CCS(=O)(=O)C2)c(Cl)c1/C=C/C(=O)OCC(=O)Nc1ccc2c(c1)OCO2 (stereo not drawn) | 2.65
47 | CC(C)COC(=O)n1c(=O)oc2ccc(S(=O)(=O)N3CCCCC3)cc21 | 0.0001
48 | CC1CCN(C(=O)Cn2ncc3c([nH]c4ccccc43)c2=O)CC1 | 7.02
49 | Cc1c(Cl)cccc1NC(=O)CCNC(=O)N1CC(=O)Nc2ccccc21 | 14.1
50 | Cc1ccc(-n2ncc3c(=O)n(CC(=O)NC4CCCCC4)cnc32)cc1 | 19.8
51 | Cc1ccc(CSCC(=O)NCc2ccc(F)cc2)cc1 | 9.12
52 | Cc1cccc(/C=N/NC(=O)CNc2cccc3ccccc23)n1 | 11.6
53 | CC(=O)Cc1nsc(Nc2ccc3c(c2)OCCO3)n1 | 11.3
54 | NC(=O)CCn1nc(-c2ccccc2)c2ccccc2c1=O | 10.9
55 | Cc1ccc(C(=O)C(C)OC(=O)CCN2C(=O)C3C4C=CC(C5CC45)C3C2=O)cc1 (stereo not drawn) | 1.22
56 | COc1cc(C(=O)NCc2ccc(-c3nc4ccccc4o3)cc2)cc(OC)c1OC | 17.9
57 | O=C(CSCc1c(F)cccc1Cl)NNC(=S)NC1CCCCC1 | 18.4
58 | O=C(CSCc1nc2scc(-c3cccs3)c2c(=O)[nH]1)Nc1ccccn1 | 13.1
59 | CCOc1ccc(C(=O)c2cnc3ccccc3c2N2CCN(CC)CC2)cc1 | -43.9
60 | CCc1ccccc1NC(=O)CNC(=O)c1ccccc1OCc1c(C)noc1C | -0.713
61 | CCCc1cc(=O)oc2cc(C)cc(OCC(=O)NCc3cccnc3)c12 | -6.08
62 | CCOc1cccc2cc(C(=O)N3CCc4ccccc4C3)c(=O)oc12 | -7.46
63 | COCCN(C(=O)COC(=O)CCc1ccccc1OC)c1c(N)n(Cc2ccccc2)c(=O)[nH]c1=O | 7.64
64 | Nc1ccccc1NC1=CC(=O)CC(c2ccco2)C1 (stereo not drawn) | 15.3
65 | O=C(Nc1nnc(S(=O)(=O)N2CCCCCC2)s1)c1ccc(Cl)cc1 | 18.9
66 | CC(=O)c1ccc(NC(=O)CSc2ccc(-c3sc(C)nc3C)nn2)cc1 | 11.2

Row | SMILES | hERG current change (%, negative = inhibition) at 1uM [%]
67 | COc1cc(OC)c(C2=NOC(C(=O)N3CCCc4ccccc43)C2)cc1Cl (stereo not drawn) | 2.13
68 | N#Cc1c2c(c(NCCN3CCOCC3)n3c1nc1ccccc13)CCCC2 | -5.19
69 | CCOc1ccc(NC(=O)CN2CCN(C(=O)C3CCCO3)CC2)cc1 (stereo not drawn) | -14.5
70 | CCN(CC)c1cc(C)c2cc(NC(=O)c3ccc(Br)o3)ccc2n1 | -11.2
71 | CC(C)=CCN1CCN(Cc2nc(-c3ccccc3)cs2)CC1CCO (stereo not drawn) | -3.07
72 | O=C(NCc1ccco1)C1CCN(S(=O)(=O)c2cccc3cccnc23)CC1 | 4.47
73 | COCCN(C(=O)CC1OC(=O)c2ccccc21)c1c(N)n(Cc2ccccc2)c(=O)[nH]c1=O (stereo not drawn) | 8.74
74 | COc1nccnc1NS(=O)(=O)c1ccc(N=Cc2c(C)[nH]n(-c3ccc(Cl)cc3)c2=O)cc1 | 18.2
75 | COc1ccc(CSCC(=O)N/N=C/c2ccc(OCC(=O)NCc3ccco3)cc2)cc1 | 9.37
76 | Cc1ccc(C)c(N2C(=N)S/C(=C\c3ccc(-c4ccccc4C(=O)O)o3)C2=O)c1 | 10.7
77 | CSc1ccc(CNCCCSc2ncccn2)cc1.Cl | -2.83
78 | O=C(N/C=C/n1cnc2cc(C(F)(F)F)ccc21)c1ccccc1 | 3.24
79 | CCOC(=O)N1CCC(N(CCN(C)C)C(=S)Nc2cc(C)cc(C)c2)CC1 | 4.08
80 | COc1ccc(Cl)cc1S(=O)(=O)NCc1cccs1 | 2.75
81 | COc1ccccc1-n1cnnc1SC1CCOC1=O (stereo not drawn) | 13
82 | CCOc1ccc(CN(C(=O)c2ccccn2)c2ccc(OC)c(Cl)c2)cc1 | 14.6
83 | COc1ccc(NC(=O)COC(=O)C2=COCCO2)cc1OC | 2.99
84 | O=C(O)CCCCCCCCc1cn(Cc2ccc(C(=O)c3ccccc3)cc2)nn1 | 17.7
85 | COC(=O)N1CN(C(=O)OC)CN(C(=O)OC)C1 | 9.46
86 | COc1cccc2sc(=NC(=O)CS(=O)(=O)c3ccc(F)cc3)n(C)c12 | 8.13
87 | CCC(CC)N1CCN(C(=O)Cc2ccccc2)CC1.O=C(O)C(=O)O | 8.76

From publication PMC4336329 (PLoS ONE, 2015)
